# Source: the supplement of paper PMC7826260
# The list shows a part of the results. The data describe in vitro nicking of single-stranded DNA by Rep domains (3 µM enzyme, 1 h, 37 °C); shown is the middle of each 90-letter strand. Numbers give uncut DNA relative to the enzyme-free pool, as log2; more negative means more cut, near 0 not cut, and no call is made. Shares of all reads are compared; values above 0 arise when much of the pool is cut.
# Experiments:
# Test in all cases: uncleaved DNA left, log2 of reads against the no-enzyme library (log2 ratio); higher = less cleavage (more negative = more Rep cleavage of the k-mer); sequences stand for … in CTCGTCCG…ACCGGAGA
# [1] = test system: T1, Rep nickase domain of Muscovy duck circovirus
# T1 sequence (residues 1-111 of Rep, tag left off): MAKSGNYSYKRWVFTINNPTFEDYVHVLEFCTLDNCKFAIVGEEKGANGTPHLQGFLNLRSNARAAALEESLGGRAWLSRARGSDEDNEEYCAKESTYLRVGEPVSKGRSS
# Experimental: (§1)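 A pool of 90-nt single-stranded DNAs with seven random bases just before the constant AC of the nick site (name = the seven bases) was cut by 3 µM recombinant His6-SUMO-tagged Rep nickase domain (300 nM DNA, 50 mM HEPES pH 8.0, 50 mM NaCl, 1 mM MnCl2, 1 h, 37 °C, three replicates). Uncut DNA was amplified and sequenced.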
# [2] = test system: T2, Rep nickase domain of banana bunchy top virus
# T2 sequence (residues 1-94 of Rep, tag left off): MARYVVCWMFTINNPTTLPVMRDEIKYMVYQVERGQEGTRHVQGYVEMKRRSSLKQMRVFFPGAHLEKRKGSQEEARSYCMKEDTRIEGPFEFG
# Experimental: as §1
# [3] = test system: T3, Rep nickase domain of cabbage leaf curl virus
# T3 sequence (residues 1-116 of Rep, tag left off): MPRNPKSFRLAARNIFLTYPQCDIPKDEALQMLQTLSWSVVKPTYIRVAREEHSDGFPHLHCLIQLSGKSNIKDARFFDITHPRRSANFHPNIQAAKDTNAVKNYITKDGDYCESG
# Experimental: as §1
# [4] = test system: T4, Rep nickase domain of chickpea chlorotic dwarf virus
# T4 sequence (residues 1-124 of Rep, tag left off): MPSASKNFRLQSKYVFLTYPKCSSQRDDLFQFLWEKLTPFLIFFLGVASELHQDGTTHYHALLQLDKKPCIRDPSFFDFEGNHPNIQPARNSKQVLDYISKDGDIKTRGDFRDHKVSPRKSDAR
# Experimental: as §1
# [5] = test system: T5, Rep nickase domain of faba bean necrotic yellows virus
# T5 sequence (residues 1-98 of Rep, tag left off): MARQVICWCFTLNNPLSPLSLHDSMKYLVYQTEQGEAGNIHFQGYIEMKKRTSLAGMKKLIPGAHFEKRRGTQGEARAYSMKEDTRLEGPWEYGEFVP
# Experimental: as §1
# [6] = test system: T6, Rep nickase domain of maize striate mosaic virus
# T6 sequence (residues 1-117 of Rep, tag left off): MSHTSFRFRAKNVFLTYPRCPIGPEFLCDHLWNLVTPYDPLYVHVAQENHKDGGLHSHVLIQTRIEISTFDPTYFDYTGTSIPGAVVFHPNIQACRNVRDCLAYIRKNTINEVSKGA
# Experimental: as §1
# [7] = test system: T7, Rep nickase domain of porcine circovirus 2
# T7 sequence (residues 2-116 of Rep, tag left off): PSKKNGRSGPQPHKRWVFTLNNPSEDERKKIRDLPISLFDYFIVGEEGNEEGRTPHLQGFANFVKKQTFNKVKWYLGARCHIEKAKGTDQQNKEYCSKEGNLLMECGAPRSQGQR
# Experimental: as §1
# [8] = test system: T8, Rep nickase domain of tomato golden mosaic virus
# T8 sequence (residues 1-124 of Rep, tag left off): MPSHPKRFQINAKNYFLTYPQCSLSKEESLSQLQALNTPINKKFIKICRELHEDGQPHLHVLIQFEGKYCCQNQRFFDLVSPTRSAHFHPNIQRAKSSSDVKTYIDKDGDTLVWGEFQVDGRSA
# Experimental: as §1
# [9] = test system: T9, Rep nickase domain of tomato yellow leaf curl virus
# T9 sequence (residues 1-136 of Rep, tag left off): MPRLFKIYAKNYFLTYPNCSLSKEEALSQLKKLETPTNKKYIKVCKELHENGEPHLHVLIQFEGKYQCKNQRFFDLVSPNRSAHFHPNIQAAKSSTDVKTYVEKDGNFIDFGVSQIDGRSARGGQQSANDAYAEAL
# Experimental: as §1
# [10] = test system: T10, Rep nickase domain of wheat dwarf virus
# T10 sequence (residues 1-137 of Rep, tag left off): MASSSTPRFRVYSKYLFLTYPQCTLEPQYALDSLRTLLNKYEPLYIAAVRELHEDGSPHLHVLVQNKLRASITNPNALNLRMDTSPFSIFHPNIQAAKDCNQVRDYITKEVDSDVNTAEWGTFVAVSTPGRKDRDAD
# Experimental: as §1
Sequence,uncleaved DNA left (log2) [1],uncleaved DNA left (log2) [2],uncleaved DNA left (log2) [3],uncleaved DNA left (log2) [4],uncleaved DNA left (log2) [5],uncleaved DNA left (log2) [6],uncleaved DNA left (log2) [7],uncleaved DNA left (log2) [8],uncleaved DNA left (log2) [9],uncleaved DNA left (log2) [10]
CCACTCA,0.000386,0.0436,0.00143,-1.36,-0.0315,-0.761,0.0144,-0.123,0.0326,0.0204
TCTTCCG,-0.0869,-0.0806,-0.904,-0.51,-0.0239,-1.09,0.186,-0.284,-0.13,-0.188
AGGATCA,-0.0272,0.0991,0.412,0.637,-0.0395,1.01,0.0758,0.0563,0.0237,0.0968
CAAAGTA,-0.0257,0.00713,-0.399,-2.21,-0.0409,-0.819,-0.144,0.0561,-0.151,-0.127
GCGATCC,0.0712,-0.105,-0.0422,0.308,-0.168,0.00191,0.00771,-0.113,0.00779,-0.0237
GATAGAC,0.045,0.143,0.621,1.35,0.0191,1.52,0.22,0.033,0.0911,0.146
AAGCCTA,0.0756,-0.0346,-0.0262,-1.56,0.00636,0.124,-0.43,0.0271,-0.0705,-0.029
GATCGAC,-0.0629,-0.0941,0.0345,0.546,-0.0509,0.579,-0.0207,-0.0769,-0.101,0.0055
AGTTGAT,-0.0508,0.0307,0.198,0.915,0.134,1.43,-3,0.188,0.0418,0.166
AGGTACC,0.0257,-0.019,0.107,0.33,0.0307,0.562,-0.258,-0.018,0.0516,0.0962
CCCCGAC,0.077,0.0192,0.205,-0.112,0.138,-0.376,-0.0692,0.0634,-0.0301,0.0344
GCTCTAC,0.121,-0.00813,-0.000979,-0.495,-0.0742,0.0613,0.00899,0.0142,-0.0183,-0.0435
CCCAGTC,-0.0447,-0.145,-0.0779,-0.266,-0.0479,-1.01,-0.006,-0.0614,0.0161,-0.152
GCAGGGA,0.171,0.145,0.42,0.919,0.128,0.474,0.237,0.159,0.127,0.152
CTATATC,0.0525,0.143,-0.0216,-0.158,-0.0931,-0.894,0.0265,-0.192,0.125,0.103
CGTTCCA,0.011,0.0294,0.15,-0.225,-0.103,0.0663,-0.184,0.0574,-0.0111,-0.00259
ATAAGAG,0.0198,0.0696,-0.753,-0.456,0.162,-1.17,0.222,0.0432,0.0711,0.0333
TCAGAGA,0.0707,0.079,0.458,0.809,0.0271,0.105,0.137,0.132,0.0466,0.137
ATCGGTA,0.0263,0.096,0.0273,-0.0751,0.0713,0.156,0.0861,0.00556,0.0597,-0.00427
GTCCGAG,-0.0102,0.062,0.79,1.72,0.0446,2.12,0.16,-0.00301,0.0944,0.0885
AAATGTA,-1.43,0.0133,-1.86,-2.49,0.0719,-1.04,-2.69,-0.161,-0.0472,-0.543
GATCCCG,0.013,-0.0535,-0.747,-0.72,-0.00329,-0.968,-0.171,-0.082,-0.106,-0.131
CTCGCAG,0.264,0.0622,-0.675,-0.613,0.109,-0.896,0.358,-0.0126,0.195,0.112
ATGCCGT,0.0277,-0.0679,-0.521,-0.812,0.0366,-1.04,-0.0378,0.0375,-0.0212,-0.133
GTGCTCC,0.0205,0.0675,0.257,0.794,-0.0873,1.79,0.029,-0.0361,0.0221,0.0371
GCGGCGT,-0.0434,0.0144,-0.0229,0.299,0.0838,-0.0636,0.148,0.0717,-0.0441,-0.0859
GTTGCAA,0.195,0.166,0.257,0.881,0.0413,1.79,0.219,0.195,0.117,0.223
ACTACTT,0.00912,-0.0839,-0.149,-2.69,0.129,-0.577,-2.04,0.0324,-0.0762,-0.125
TTCCTAA,-0.0612,-0.00944,0.241,0.079,0.0606,0.097,0.0681,0.048,0.121,0.178
TCTTGCT,-0.172,-0.0491,-0.831,-1.15,0.03,-1.19,-0.975,-0.133,-0.0288,-0.057
